The values below come from ChEMBL document CHEMBL1157539, “Thousands of chemical starting points for antimalarial lead identification” (Nature, 2010).

Molecules are shown by their SMILES. In all, about 13,000 compounds were measured (“IFI”: median about 4, highest 2% from about 17 on). This is one part of the list.

This test in a line: GSK_TCMDC: Inhibition Frequency Index (IFI). The number of non-kinase HTS assays where a compound showed > 50 % inhibition, expressed as a percentage of the number of such assays in which the compound was tested (-0 is zero). The class given is functional.
`COc1cc(Nc2ccc3cc(S(=O)(=O)N4CCCCC4C)ccc3n2)cc(OC)c1OC` (stereo not given) registered an IFI of 4.41%.

`O=C1OC2(CCN(Cc3cccc(-c4ncc[nH]4)c3)CC2)CN1CCNCc1ccccc1` registered an IFI of -0%.

The compound `CCNC(=O)Nc1cccc(-c2ccc(-c3nc4cccc(C)c4[nH]3)s2)c1` displayed an IFI of 5.88%.

For `Cc1cccc2nc(-c3cccc(-c4ccc(NC(=O)CC5NC(=O)c6ccccc65)cc4)c3)[nH]c12` (stereo not given), the IFI worked out at 4.55%.

`COc1ccc2ncc(C)c(CCN3CCC(NCc4ccc5c(n4)NC(=O)CS5)CC3)c2c1`: the IFI amounted to 2.11%.

Regarding `CNC(=O)CNC(=O)COc1cccc2ccccc12`, the IFI was found to be 0%.

`O=C(NCCc1ccc(Cl)c(Cl)c1)C1CCCN(C(=O)c2ccc(O)c(-c3ccc(Cl)c(Cl)c3)c2)C1` (stereo not given) gave an IFI of 1.52%.

Take `CCOc1ccc(NC(=O)c2cccc(CN3CCCN(Cc4cccc(O)c4)CC3)c2)cc1`: the IFI was 3.52%.

Compound `CN(C)c1ccc(-c2nc3cc(N)ccc3[nH]2)cc1` returned an IFI of 6.16%.

Take `OC(CNC1CCCCC1)Cn1c2ccccc2c2ccccc21` (stereo not given): the IFI was 1.68%.

Regarding `O=C(/C=C/c1ccc(Cl)c(Cl)c1)N1CCC(NCc2c[nH]c3ccccc23)CC1`, the IFI was 7.69%.

`CC1(C)OC[C@]2(C)[C@@H](CC[C@]3(C)C4=CC(=O)CCC4CC[C@@H]23)O1` (stereo not given in full) gave an IFI of -0%.

Turning to `COc1cc2nc(N3CCN(C(=O)c4ccc(N(C(=O)OC(C)(C)C)C(=O)OC(C)(C)C)cc4)CC3)nc(N)c2cc1OC`, the IFI worked out at 2.04%.

For `CCc1cn2c3c(cc(C(=O)N[C@@H](Cc4ccccc4)[C@H](O)CNCC(C)C)cc13)N(C)S(=O)(=O)CC2`, the IFI turned out to be 2.26%.

In the case of `COc1cc(Nc2ncnc3cc(OC)c(OC)cc23)cc([N+](=O)[O-])c1`, the IFI worked out at 0%.

The compound `Cc1cccc2nc(-c3ccc(-c4ccc(NC(=O)C(C)CN(C)C)cc4)s3)[nH]c12` (stereo not given) gave an IFI of 5.41%.

As to `FC(F)(F)Oc1ccc(Nc2cc(-c3ccncc3)nc(-c3cccnc3)n2)cc1`, the IFI was -0%.

Take `CC(C)(CNC(=O)C1CCN(Cc2ccc(Cl)cc2)CC1)c1nc(-c2ccc(Cl)c(O)c2)c(-c2ccncc2)[nH]1`: the IFI was 5.07%.

The compound `Cc1c(CC(=O)NCCC2CCN(CCCCCNC(=O)/C=C/c3ccc(Cl)c(Cl)c3)CC2)sc2ccc(Cl)cc12` returned an IFI of 9.03%.

In the case of `Oc1ccc(Cl)cc1Nc1nc(C(F)(F)F)nc2ccccc12`, the IFI worked out at 5.88%.

With `CCn1ncc(Cl)c1CN(C)S(=O)(=O)c1ccc(Br)cc1`, the IFI came to 1.89%.

The compound `CN(C)CCCOc1cccc(NC(=O)Nc2ccc(-c3ccccc3)cc2)c1` came in with an IFI of 3.6%.

Consider `COc1ccc(CN2CCC(CNCCc3c(Cl)cccc3Cl)CC2)cc1`, for which the IFI worked out at 5.84%.

Regarding `COc1ccc2nccc([C@@H](O)CN3CCC(NC(=O)/C=C/c4cccc(-c5ccccc5)c4)CC3)c2c1`, the IFI was 2.21%.

The compound `O=C(Nc1cccc(-c2ccc(CN3CCCC3)cc2)c1)c1cccc(Cl)c1` returned an IFI of 1.96%.

`O=C(Nc1ccc2c(c1)CCN2C1CCN(Cc2cccc(C(F)(F)F)c2)C1)c1ccco1` (stereo not given) gave an IFI of -0%.

`COc1ccc(CNCc2ccc(-c3ccc(-c4nc5cccc(C)c5[nH]4)s3)cc2)cc1`: the IFI stood at 12.5%.

The compound `CCCCc1cc(NCC)nc(Nc2ccc(F)cc2)n1` showed an IFI of 6.06%.

For the compound `NC1=NC2(CCCCC2)N(Cc2ccc(Cl)c(Cl)c2)C(N)=N1`, the IFI was 6.67%.

With `CCN(CC)CCCOc1ccc(Nc2nccc(-c3c(-c4cccc(NC(=O)c5c(F)cccc5F)c4)nn4ccccc34)n2)cc1F`, the IFI is 8.59%.

Turning to `CC(C)CNCc1cccc(-c2ccc(CNC3CCN(Cc4ccccc4)CC3)cc2)c1`, the IFI was 4.2%.

Regarding `Cc1cccc2nc(-c3ccc(-c4cccc(CNCCN5CCNCC5)c4)cc3)[nH]c12`, the IFI worked out at 6.93%.

The compound `CC(C)Nc1nc(NCCc2c[nH]cn2)nc(Nc2ccc(Oc3ccccc3)cc2)n1` gave an IFI of 1.46%.

The compound `CCOC(=O)c1ccc(OCCOc2ccccc2)cc1` showed an IFI of -0%.

As for `CCCc1ccc(Cc2cnc3nc(N)nc(N)c3c2C)cc1`, the IFI is 2.42%.

As to `CCc1c[nH]c2c(N3CCCS3(=O)=O)cc(C(=O)N[C@@H](Cc3ccccc3)[C@H](O)CNC(C)(C)CCCC(C)C)cc12`, the IFI was determined as 8.03%.

`O=C(Nc1ccc(C(=O)OCC2CCCCC2)cc1)N[C@@H](Cc1ccc(O)cc1)C(=O)NC1CCN(Cc2ccc(O)cc2)C1` (stereo not given in full) registered an IFI of 5.41%.

The compound `CC(=O)Nc1ccc(S(=O)(=O)Nc2ccc(Nc3nc(C)cc(N4CCCCC4)n3)cc2)cc1` registered an IFI of 2%.

Compound `c1ccc2cc(CNCCCN3CCN(CCCNCc4ccc5ccccc5c4)CC3)ccc2c1` displayed an IFI of 11.7%.

Take `COc1ccc(CNCc2ccccc2)cc1-c1cccc(S(=O)(=O)NCCN2CCCC2)c1`: the IFI was determined as 11.1%.

`N#Cc1ccc(CNCCCCCCNCc2ccc(C#N)c3ccccc23)c2ccccc12` yielded an IFI of 7.04%.

The compound `CCOc1ccc(-c2cc3nc(C4CCNCC4)c(C(=O)Nc4ccc(C)cc4Cl)cn3n2)cc1` returned an IFI of 9.68%.

`Cc1ccc(S(=O)(=O)N(CCCNCc2cccc(O)c2)c2ccccc2)cc1` came in with an IFI of 4.73%.

Regarding `CC(Cc1ccc(NC(=O)COc2ccc(CC(C)NCCc3cccc(Cl)c3)cc2)cc1)NCCc1cccc(Cl)c1` (stereo not given), the IFI was determined as 32.4%.

Compound `CCOc1ccc2c(=NN=Cc3cc(OC)c(OC)c(OC)c3)cc(C)[nH]c2c1` showed an IFI of 4.32%.

`CCOc1ccc2ccccc2c1CNCCCCCCNCc1c(OCC)ccc2ccccc12`: the IFI is 13%.

`Nc1cccc(C=CC(=O)N=c2cc[nH]c3ccccc23)c1`: the IFI worked out at 2.29%.

`Cc1cc(C)cc(OCC(O)CN(Cc2cc(Cl)cc(Cl)c2)C(=O)Nc2ccc([N+](=O)[O-])cc2)c1` (stereo not given): the IFI stood at 4.11%.

`CS(=O)(=O)Cc1ccc(Nc2nccc(-c3c(-c4cccc(NC(=O)c5c(F)cccc5F)c4)nn4ccccc34)n2)cc1` showed an IFI of 7.14%.

Take `Cc1ccc(C2=NNC3(S2)C(=O)Nc2ccc(C)cc23)cc1` (stereo not given): the IFI came to 11.3%.

For `O=[N+]([O-])c1cc(/C=N/Nc2nc3ccccc3[nH]2)ccc1O`, the IFI amounted to 1.56%.

In turn, `Oc1cc(Nc2ccnc3cc(-c4ccc(CN5CCCCC5)o4)ccc23)c(Cl)cc1F` registered an IFI of 11.5%.

In turn, `COc1cc2nc(C)nc(Nc3cccc(Br)c3)c2cc1OC` displayed an IFI of -0%.

Compound `COc1ccc(-c2cncc(-c3ccc(OC)c(OC)c3)n2)cc1OC` gave an IFI of 2.99%.

In the case of `CO/C(=C\C=C\c1cc2cc(Cl)c(Cl)cc2[nH]1)C(=O)NCCCCN1CCN(c2ccccc2OC)CC1`, the IFI turned out to be 19.1%.

`CC(=O)c1ccc(NC(=O)CSc2nc(-c3ccccc3Cl)ns2)cc1` had an IFI of 4.76%.

Regarding `Cc1ccc2ccccc2c1CCCON1C(=N)N=C(N)NC1(C)C`, the IFI is 4.93%.

On to `O=S(=O)(NCCN1CCCC1)c1cccc(-c2ccc(CNCc3ccccc3)cc2)c1`, for which the IFI is 5.88%.

`CSc1cccc(Nc2nc3ccc(S(=O)(=O)NCC(C)C)cc3n2C(C)C(C)C)c1` (stereo not given) had an IFI of 2.96%.

`Nc1nccc2ccc(-c3ccc4nccn4c3)cc12` registered an IFI of 5.49%.

In the case of `CC(C)CCN1CCC(Oc2ccc(NC(=O)c3ccc4ncccc4c3)cc2Cl)C1` (stereo not given), the IFI was determined as 7.69%.

`Cc1c[nH]c(-c2cccc(C(=O)NC3CCC(CCN4CCc5ccc(C#N)cc5CC4)CC3)c2)n1` (stereo not given) yielded an IFI of 5%.

For `CC1(C)NC(N)=NC(=N)N1OCCNCc1ccc(Cl)cc1`, the IFI stood at 0.74%.

The compound `Cc1cc(N(C)C2CCN(CC3CCCCC3)C2)nc(Nc2ccc(Br)cc2)n1` (stereo not given) displayed an IFI of 7.89%.

For the compound `COc1cccc(C(=O)NC(C=Cc2ccccc2)c2cc(Cl)c3cccnc3c2O)c1` (stereo not given), the IFI was determined as 4.67%.

The compound `CCN(CC)CCN(CCN(CC)CC)c1ccc2c(c1)Sc1c(Cl)ccc(Cl)c1S2` yielded an IFI of 7.41%.

`CC1CN(Cc2csc(Nc3ccccc3)n2)CC(C)O1` (stereo not given) gave an IFI of 3.77%.

With `Cc1cccc2nc(-c3ccc(-c4ccc(CNCCNC(=O)c5ccnn5C)cc4)cc3)[nH]c12`, the IFI was 6.93%.

For the compound `Cc1cccc2nc(-c3cccc(-c4ccc(NC(=O)NCc5ccccc5)cc4)c3)[nH]c12`, the IFI is 2.02%.

The compound `COc1ccc2ncc(F)c(CCN3CCC[C@H](CNCc4ccc5c(n4)NC(=O)CS5)C3)c2n1` yielded an IFI of 3.85%.

`Cc1cc(N[C@@H](CC(C)C)C(=O)NCCOc2ccccc2)nc(NCCc2ccccc2)n1`: the IFI worked out at 10%.

Take `FC(F)(F)c1ccc2[nH]ccc(=NN=Cc3ccccc3Cl)c2c1`: the IFI is -0%.

`O=C(C1CCCCC1)N1CCOC(CCN2CCC(c3ccccc3)CC2)(c2ccc(Cl)c(Cl)c2)C1` (stereo not given) showed an IFI of 7.33%.

Take `CC(C)CCn1c(Sc2ccc(C#N)c([N+](=O)[O-])c2)nnc1-c1cccc(Cl)c1`: the IFI is 6.43%.

For `Cc1cc(F)ccc1[C@H]1CNCCN1C(=O)N(C)[C@@H](C)c1cc(C(F)(F)F)cc(C(F)(F)F)c1`, the IFI was determined as 7.69%.

In the case of `CCCNCCc1ccc(NS(=O)(=O)c2cccc(-c3ccc(Cl)cc3)c2)cc1`, the IFI is 15.7%.

The compound `COc1ccc(CC(=O)NC(CCCN2CCC3(CC2)OCc2ccccc23)c2ccc(Cl)c(Cl)c2)cc1` (stereo not given) came in with an IFI of 8.11%.

On to `COc1ccc2ccccc2c1C=NN=c1cc(C)[nH]c2c(C)cccc12`, for which the IFI worked out at 1.48%.

`COc1cccc(OC2CCN(C(=O)c3cc(C(C)(C)C)nn3Cc3ccccc3)CC2)c1` yielded an IFI of -0%.

`Cc1ccc(NCc2cccc(F)c2)cc1S(=O)(=O)N[C@@H]1CCN(C#N)C1` came in with an IFI of 2.94%.

Compound `O=C(CNC(=O)c1ccc(O)cc1)Nc1cccc(-c2cccc(-c3nc4cc(C(F)(F)F)ccc4[nH]3)c2)c1` gave an IFI of 6.19%.

`CCOc1cccc(C(=O)Nc2cccc(CN3CCCN(Cc4cccc(O)c4)CC3)c2)c1` showed an IFI of 3.85%.

For `COc1cccc(CN2Cc3ccccc3OC3(CCN(Cc4c[nH]c5cnccc45)CC3)C2)c1`, the IFI was 11.1%.

The compound `COc1cc2ccccc2cc1CNCCCCCCNCc1cc2ccccc2cc1OC` registered an IFI of 7.91%.

Compound `CO/C(=C\C=C\c1cc2cc(Cl)c(Cl)cc2[nH]1)C(=O)NC1CCN(CCOc2ccccc2)CC1` returned an IFI of 10.6%.

The compound `FC(F)(F)c1ccc2[nH]c(-c3cccc(-c4cccc(CNCc5cnn(-c6ccccc6)n5)c4)c3)nc2c1` yielded an IFI of 0%.

`COc1ccc(NC(=O)[C@H](CC(C)C)Nc2cc(C)nc(NCCc3ccc(F)cc3)n2)cc1`: the IFI amounted to 9.09%.

With `Cc1cccc(CNc2nc(C)cc(NCCC(=O)NCc3cccc(F)c3)n2)c1`, the IFI is 4.76%.

`COc1ccc(NC(=O)[C@H](CC(C)C)Nc2cc(C)nc(NCCc3ccccc3)n2)cc1` registered an IFI of 16.3%.

`O=C(N[C@@H](Cc1cc(F)cc(F)c1)[C@H](O)CNCc1cccc(C(F)(F)F)c1)c1cc(C2CCCC2)cc(N2CCCC2=O)c1` came in with an IFI of 10.5%.
